Assay results: patent publication US20040248764A1 (priority 2001, published 2004)

What was measured:
[1] = Method: Alternatively, the solution can be prepared without a surfactant by placing the terpene, e.g., citral, in water and mixing under solution-forming shear conditions until the terpene is in solution.
[…] . The citral and water were blended in a household blender for 30 seconds.
Alternatively, moderate agitation also prepared a solution of citral by shaking by hand for approximately 2-3 minutes.
. Examples of these levels are as follows.

[2] = test system: H. pylori; settings: cited from earlier work
[3] = test system: Xylella sp. strains Shiraz, Melody, Coyaga; assay type: cell-based; set-up: key: NG = No Growth; TNTC = Too Numerous To Count; settings: 10^8 CFU

**Q.** For `CC(C)=CCC/C(C)=C/CO` [Geraniol], which “Solution level (maximum level of terpene that can be solubilized)” value (“Solution level” below) [1] is on record?
**A.** 500 ppm

**Q.** What about the “growth of H. pylori in vitro” value [2] of the same compound?
**A.** inhibited the growth

**Q.** Which “Solution level” value [1] does the source give for `C=C(C)C1CC=C(C)C(=O)C1` (centres unmarked) [Carvone] here?
**A.** 500 ppm

**Q.** For `CC(C)=CCCC(C)=CC=O` [citral, 3,7-dimethyl-2,6-octadien-1-al], which “Xylella growth (CFU)” value ([3]; strain Coyaga, 125 ppm) is on record?
**A.** NG

**Q.** And the “Xylella growth (CFU)” value ([3]; strain Coyaga, 250 ppm)?
**A.** NG

**Q.** And the “Xylella growth (CFU)” value ([3]; strain Melody, 125 ppm)?
**A.** NG

**Q.** And the “Xylella growth (CFU)” value ([3]; strain Melody, 250 ppm)?
**A.** NG

**Q.** And the “Xylella growth (CFU)” value ([3]; strain Shiraz, 125 ppm)?
**A.** NG

**Q.** What about the “Xylella growth (CFU)” value ([3]; strain Shiraz, 250 ppm) of the same compound?
**A.** NG*

**Q.** With `CC(=O)/C=C/C1=C(C)CCCC1(C)C` [b-ionone] as the compound, how does the “Solution level” value [1] read?
**A.** 500 ppm

**Q.** For Terpeniol, which “Solution level” value ([1]; water, no surfactant, solution-forming shear) is on record?
**A.** 500 ppm

Where two headings read alike, the source gives them in different places.
